Out of some 310,000 compounds screened, about 14,000 (4.5%) showed an effect of 50% or more. Effects have a minus sign here. Some of the results follow.
Target: human ether-à-go-go-related gene (hERG) potassium channel (human, UniProt Q12809)
Assay: primary screen, population patch clamp on CHO cells stably expressing hERG
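Note: peak tail current of the secondary pulse compared with the same well before compound.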

Sequence of human ether-à-go-go-related gene (hERG) potassium channel (Q12809 whole entry, looked up): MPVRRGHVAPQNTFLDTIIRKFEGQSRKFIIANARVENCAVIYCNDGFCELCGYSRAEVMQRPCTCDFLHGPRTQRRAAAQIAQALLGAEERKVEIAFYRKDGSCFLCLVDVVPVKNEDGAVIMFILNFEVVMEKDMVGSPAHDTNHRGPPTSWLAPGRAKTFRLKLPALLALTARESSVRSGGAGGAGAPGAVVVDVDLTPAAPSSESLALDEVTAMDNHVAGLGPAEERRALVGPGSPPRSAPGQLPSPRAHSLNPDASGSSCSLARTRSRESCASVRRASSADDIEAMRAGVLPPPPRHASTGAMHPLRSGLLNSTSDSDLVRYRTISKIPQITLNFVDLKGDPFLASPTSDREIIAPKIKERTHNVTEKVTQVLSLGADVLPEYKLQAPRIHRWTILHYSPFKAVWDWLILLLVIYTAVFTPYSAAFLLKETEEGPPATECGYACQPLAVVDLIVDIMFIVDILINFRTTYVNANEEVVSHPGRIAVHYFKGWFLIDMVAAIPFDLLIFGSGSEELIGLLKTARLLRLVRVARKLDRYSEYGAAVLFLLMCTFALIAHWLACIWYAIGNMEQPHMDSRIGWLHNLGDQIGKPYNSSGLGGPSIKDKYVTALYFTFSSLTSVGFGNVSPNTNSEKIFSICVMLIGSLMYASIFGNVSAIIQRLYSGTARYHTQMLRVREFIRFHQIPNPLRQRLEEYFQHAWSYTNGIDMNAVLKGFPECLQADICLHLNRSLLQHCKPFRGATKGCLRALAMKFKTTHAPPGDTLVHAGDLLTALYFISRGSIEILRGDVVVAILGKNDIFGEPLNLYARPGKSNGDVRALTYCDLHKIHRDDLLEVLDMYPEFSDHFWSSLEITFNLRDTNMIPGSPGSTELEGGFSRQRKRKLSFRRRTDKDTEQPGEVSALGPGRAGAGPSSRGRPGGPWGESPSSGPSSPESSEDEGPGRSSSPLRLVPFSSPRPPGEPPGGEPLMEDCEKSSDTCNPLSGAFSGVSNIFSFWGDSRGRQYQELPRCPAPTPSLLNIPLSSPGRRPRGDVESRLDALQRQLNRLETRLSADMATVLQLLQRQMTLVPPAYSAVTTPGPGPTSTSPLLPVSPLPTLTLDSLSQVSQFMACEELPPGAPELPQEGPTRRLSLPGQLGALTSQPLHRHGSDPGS

Going from O=c1[nH]cnc2c1C1(CCCC1)Cc1ccccc1-2 to O=C1NC(=O)C(Nc2cccc3ccccc23)S1 (stereo not shown), the “hERG current change (%, negative = inhibition) at 10uM” value rises from 7.69% to 7.89%.

First: COc1ccc(C(=O)NC2CC3CCCC(C2)N3CC(C)C)cc1OC (stereo not shown)
Second: COc1ccc(S(=O)(=O)NC(C)C(=O)NCC2CCCO2)cc1OC (stereo not shown)
The “hERG current change (%, negative = inhibition) at 10uM” value of the first is lower: 7.71% for the first, 23.3% for the second.

First: CCn1cc(C(=O)O)c(=O)c2cnc(N3CCN(C(=S)Nc4ccc(F)cc4)CC3)nc21
Second: CN1CCN(C(=S)C(=O)Nc2ccccc2)CC1
The “hERG current change (%, negative = inhibition) at 10uM” value of the first is lower: 13.3% for the first, 26.1% for the second.

Compared with CN(/C(=N/S(=O)(=O)c1cccs1)c1ccccc1)c1ccc(O)cc1, COc1ccc(NS(=O)(=O)c2cccc(C(=O)N(C)Cc3cccs3)c2)cc1 is lower in “hERG current change (%, negative = inhibition) at 10uM” value: 13.6% for the first, -3.83% for the second.

Going from Cc1cccnc1NC(=O)C1CC(=O)N(c2ccc3c(c2)OCCO3)C1 (stereo not shown) to CCOc1ccccc1-n1c(SC(C)C(=O)NCC2CCCO2)nc2ccccc2c1=O (stereo not shown), the “hERG current change (%, negative = inhibition) at 10uM” value falls from 18% to -10.7%.

First: CCn1cc(CN2CCN(Cc3ccsc3)C(CCO)C2)cn1 (stereo not shown)
Second: O=C(c1ccc(OC2CCN(Cc3ccccn3)CC2)cc1)N1CCC[C@H]1CO
The “hERG current change (%, negative = inhibition) at 10uM” value of the first is lower: -3.26% for the first, 19.4% for the second.

First: Cc1ccc(-c2csc3ncnc(SCC(=O)NCC4CCCO4)c23)cc1 (stereo not shown)
Second: COc1ccc(N(C(=O)Cn2nnc(-c3ccc(Cl)cc3)n2)C(C(=O)NCC2CCCO2)c2ccncc2)cc1 (stereo not shown)
The “hERG current change (%, negative = inhibition) at 10uM” value of the first is lower: -35.4% for the first, 4.81% for the second.

First: O=C(NCCC1CCCCN1S(=O)(=O)c1ccccc1)C(=O)Nc1ccc(F)cc1 (stereo not shown)
Second: O=C(Cc1coc(-c2ccc(F)cc2)n1)NCc1ccccc1
The “hERG current change (%, negative = inhibition) at 10uM” value of the first is lower: -16.7% for the first, 13.6% for the second.

Going from O=C(NC(=S)Nc1ccccc1)c1cc(-c2ccccc2)nc2ccccc12 to Cc1c(Cl)cccc1NC(=O)COC(=O)CCc1nc2ccccc2n1-c1ccccc1, the “hERG current change (%, negative = inhibition) at 10uM” value falls from -4.97% to -18.1%.

Compared with CCOC(=O)[C@@H]1[C@H]2COc3ccccc3[C@@H]2N2C(=O)N(c3ccc(Cl)cc3)C(=O)[C@@]12C, CC(c1ccccc1)C1CC(=O)N(c2ccc([N+](=O)[O-])cc2)C1=O (stereo not shown) is lower in “hERG current change (%, negative = inhibition) at 10uM” value: -7.5% for the first, -45% for the second.

First: Cn1c(N)c(C(=O)COC(=O)c2ccccc2NCc2ccco2)c(=O)n(C)c1=O
Second: CCN(CC)S(=O)(=O)c1ccc(/C=C/C(=O)OCC(=O)c2c(N)n(C)c(=O)n(C)c2=O)cc1
The “hERG current change (%, negative = inhibition) at 10uM” value of the first is higher: 21.4% for the first, 11.5% for the second.

Compared with Cc1[nH]c2ccc(F)cc2c(=O)c1SC(F)(F)C(F)F, Cc1ccc(S(=O)(=O)N/N=C2/CC(=O)CC(C)(C)C2)cc1[N+](=O)[O-] is lower in “hERG current change (%, negative = inhibition) at 10uM” value: 10.7% for the first, 7.57% for the second.

Going from COCCC(=O)NC1CCCc2c1cnn2-c1cccc(C)c1C (stereo not shown) to COc1ccc(N(CC(=O)NC2CCCC2)C(=O)c2ccc(C)s2)cc1OC, the “hERG current change (%, negative = inhibition) at 10uM” value rises from 9.3% to 15.8%.

Compared with CC1=NN(C(N)=S)C(=O)C1N=Nc1ccccc1C(=O)O (stereo not shown), NC(=O)c1ccc[n+](CC(=O)Nc2ccccc2C(=O)O)c1.[Cl-] is lower in “hERG current change (%, negative = inhibition) at 10uM” value: 22.1% for the first, -7.23% for the second.

Compared with Cc1nc(NC(=O)c2ccco2)sc1C(=O)O, CCCCc1nc(N2CCN(C(=O)c3ccco3)CC2)c(C#N)c2c1CCCC2 is higher in “hERG current change (%, negative = inhibition) at 10uM” value: -7.53% for the first, -5.71% for the second.

Compared with CCC(=O)c1ccc(OCC(=O)OCC(=O)Nc2c(C)n(C)n(-c3ccccc3)c2=O)cc1, COCCNC(=O)COc1ccc(Nc2ccccc2)cc1 is lower in “hERG current change (%, negative = inhibition) at 10uM” value: 18.8% for the first, -2.91% for the second.

Compared with COc1ccccc1COc1ccc2c(C)c(CC(=O)O)c(=O)oc2c1C, COC(=O)c1c(-c2ccc3ccccc3c2)csc1NC(=O)Cc1ccc(OC)c(OC)c1 is lower in “hERG current change (%, negative = inhibition) at 10uM” value: 20.2% for the first, 8.06% for the second.

First: COc1cc(C(=O)NCCNc2nc3c(C)c(C)ccc3cc2C#N)cc(OC)c1OC
Second: CCOc1ccc(C(=O)OCC(=O)Nc2cc(C)on2)cc1OCC
The “hERG current change (%, negative = inhibition) at 10uM” value of the first is higher: 8.26% for the first, -19.9% for the second.

First: CCC(C(=O)NC(C)CCc1ccco1)n1nc(C)n2c(cc3occc32)c1=O (stereo not shown)
Second: CCn1cc(C(=O)NCc2ccco2)c(=O)c2cc(S(=O)(=O)N3CCCCCC3)ccc21
The “hERG current change (%, negative = inhibition) at 10uM” value of the first is higher: -18% for the first, -53.3% for the second.

Compared with Cc1nnc(SCC(=O)N2CC(C)OC(C)C2)n1-c1ccccc1 (stereo not shown), Cc1ccc(C(=O)CSc2ncnc3ccccc23)o1 is lower in “hERG current change (%, negative = inhibition) at 10uM” value: 5.1% for the first, 0.357% for the second.

Compared with CCN(CC)CCCNC(=O)C1CCN(C(=O)c2oc3cc4sc(N(C)C)nc4cc3c2C)CC1, Cc1cc(C)cc(NC(=O)N2CCC(NC(=O)c3ccccc3C)CC2)c1 is lower in “hERG current change (%, negative = inhibition) at 10uM” value: 12.6% for the first, 5.74% for the second.

Going from COCCNC(=S)N1CCN(c2cccc(C(F)(F)F)c2)CC1 to O=C(CCc1ccccc1)NCCS(=O)(=O)N1CCN(c2ccccc2)CC1, the “hERG current change (%, negative = inhibition) at 10uM” value falls from -12.2% to -22%.

First: CN1/C(=C\C=C(C#N)C#N)C(C)(C)c2ccccc21
Second: Cc1ccc(C)c(CNS(=O)(=O)c2ccc3c(c2)C(C)(C)C(=O)N3C)c1
The “hERG current change (%, negative = inhibition) at 10uM” value of the first is higher: 11.5% for the first, -20.4% for the second.

Compared with CCC(CC)C(=O)Nc1ccc(Sc2ccc([N+](=O)[O-])cc2)cc1, CCOc1ccc([N+](=O)[O-])cc1CNCCc1ccccc1.Cl is lower in “hERG current change (%, negative = inhibition) at 10uM” value: -7.16% for the first, -45.5% for the second.

First: C=CCOC(=O)C1=C(C)NC(SCC)=C(C#N)C1c1ccc(Cl)cc1 (stereo not shown)
Second: CCCSC1=C(C#N)C(c2ccc(Cl)cc2Cl)CC(=O)N1 (stereo not shown)
The “hERG current change (%, negative = inhibition) at 10uM” value of the first is lower: 4.87% for the first, 12.2% for the second.

Going from CC(O)c1ccc(OCCN(C)c2ccccn2)cc1 (stereo not shown) to Cc1ccc(S(=O)(=O)CCC(O)c2ccc(Cl)cc2)cc1 (stereo not shown), the “hERG current change (%, negative = inhibition) at 10uM” value falls from 12.9% to 2.64%.

Compared with CSc1ccc(S(=O)(=O)NC2CCCCCC2)cc1, COc1ccc(OCCNC2CCCC2)cc1 is higher in “hERG current change (%, negative = inhibition) at 10uM” value: -25.2% for the first, 0.614% for the second.

Going from CCOc1cccc(CNc2nnnn2C)c1 to CCSCc1nc(N)nc(NCCc2ccccc2)n1, the “hERG current change (%, negative = inhibition) at 10uM” value falls from 19.4% to 9.33%.

Compared with Cc1cccc(NC(=O)NCCc2ccc(Cl)cc2)c1, O=C(NCc1ccc(Cl)cc1)c1ccc2ccccc2n1 is lower in “hERG current change (%, negative = inhibition) at 10uM” value: 25% for the first, 18.5% for the second.

Compared with O=C(O)c1cnn2c(C(F)F)cc(C3CC3)nc12, O=C(O)C1CCCN1C(=O)OCC1c2ccccc2-c2ccccc21 (stereo not shown) is higher in “hERG current change (%, negative = inhibition) at 10uM” value: 3.73% for the first, 10.2% for the second.

Going from COc1cccc(/C=C(/C(=O)OCC(=O)NCC2CCCO2)c2ccccc2)c1 (stereo not shown) to COc1cccc(NC2SC(=O)N(c3ccccc3)C2=O)c1 (stereo not shown), the “hERG current change (%, negative = inhibition) at 10uM” value falls from 13.7% to 10.2%.

First: COc1cc2c(cc1OC)C(c1ccc(-c3ccc(Cl)cc3Cl)o1)=NCC2
Second: COc1ccc(OCc2cc(C(=O)N(C)Cc3nnc(C)o3)no2)c(Cl)c1
The “hERG current change (%, negative = inhibition) at 10uM” value of the first is lower: 2.19% for the first, 8.63% for the second.

Going from Cn1c(=O)[nH]c2ncn(C)c2c1=O to COCCn1c(C)cc(/C=C2/SC(=O)N(C(C)C(=O)OC)C2=O)c1C (stereo not shown), the “hERG current change (%, negative = inhibition) at 10uM” value falls from 4.56% to -35.7%.

First: CCCC(C)C(=O)Nc1ccncc1 (stereo not shown)
Second: CC(=O)Nc1ccc2c(CSc3nncs3)cc(=O)oc2c1
The “hERG current change (%, negative = inhibition) at 10uM” value of the first is higher: 8.78% for the first, -21.5% for the second.

First: COc1ccc(C)cc1NC(=O)CN1CCN(C/C=C/c2ccccc2)CC1
Second: COc1ccccc1N1CCN(CC(O)c2ccc3cc[nH]c3c2)CC1 (stereo not shown)
The “hERG current change (%, negative = inhibition) at 10uM” value of the first is lower: -78.3% for the first, -69.3% for the second.

First: CC1CC(=O)N(c2ccc(NCc3ccc(Cl)cc3)c([N+](=O)[O-])c2)C1=O (stereo not shown)
Second: O=[N+]([O-])c1cc(-c2nc(-c3ccncc3)no2)ccc1Cl
The “hERG current change (%, negative = inhibition) at 10uM” value of the first is higher: 14% for the first, -3.98% for the second.

Compared with CCn1nc(C(=O)OC2CCOC2=O)c2ccccc2c1=O (stereo not shown), CCc1noc(C)c1C(=O)OCC(=O)N(CCOC)c1c(N)n(Cc2ccccc2)c(=O)[nH]c1=O is higher in “hERG current change (%, negative = inhibition) at 10uM” value: 1.38% for the first, 16.7% for the second.

First: Cc1cc(CC(C)C)n(-c2nc3ccccc3c(=O)n2OCc2ccccc2)n1
Second: Cc1cc(S(=O)(=O)NCC(c2ccccc2)c2ccccc2)ccc1-n1cnnn1
The “hERG current change (%, negative = inhibition) at 10uM” value of the first is lower: -7.08% for the first, 0.0665% for the second.

Compared with CN(C)CC(=O)c1c[nH]c2ccccc12, CC(=O)NC(Cc1c[nH]c2ccccc12)C(=O)N/N=C/c1ccccc1 (stereo not shown) is higher in “hERG current change (%, negative = inhibition) at 10uM” value: 13.8% for the first, 26.2% for the second.

First: O=Cc1ccc(N2CCCC2)c([N+](=O)[O-])c1
Second: Cc1ccc(C)c(N2CCN(C(=O)CN(C)S(=O)(=O)c3ccc4c(c3)CCC(=O)N4)CC2)c1
The “hERG current change (%, negative = inhibition) at 10uM” value of the first is higher: -26.5% for the first, -41.5% for the second.

Going from Cc1ccc(NC(=O)CCN2C(=O)C3C4CCC(C4)C3C2=O)cc1Cl (stereo not shown) to COC(=O)c1c(N2C(=O)[C@H]3[C@@H](C2=O)[C@]2(C(=O)Nc4c(C)cccc42)N2CCC[C@@H]32)sc(C)c1C, the “hERG current change (%, negative = inhibition) at 10uM” value falls from -0.338% to -1.93%.

First: CC(NS(=O)(=O)OCC(Cl)(Cl)Cl)c1ccc(Br)cc1 (stereo not shown)
Second: CN(Cc1ccccc1)C(=O)CCS(=O)(=O)c1ccc2c(c1)NC(=O)CS2
The “hERG current change (%, negative = inhibition) at 10uM” value of the first is higher: 0.818% for the first, -6.49% for the second.

Going from COC(=O)N/N=C/c1cn(CCOc2ccccc2OC)c2ccccc12 to CC1(C)Oc2ccc(C(=O)NNC(=O)Nc3ccccc3)cc2NC1=O, the “hERG current change (%, negative = inhibition) at 10uM” value rises from -3.78% to 8.71%.

First: CCc1nc2cc(C)nn2c2nc3ccccc3n12
Second: Cc1cc(=O)oc2cc(OCC3CC(c4ccc(N(C)C)cc4)=NO3)ccc12 (stereo not shown)
The “hERG current change (%, negative = inhibition) at 10uM” value of the first is lower: -30.9% for the first, -2.99% for the second.

Source: paper PMC4336329 (PLoS ONE, 2015)
